Source: a collection of fitness landscapes (doi:10.1126/science.1257360)
Some of the results follow.

B1: PhoQ; a variant is named by its letters at X, in order, P23837 (parent)
chain: MKKLLRLFFPLSLRVRFLLATAAVVLVLSLAYGMVALIGYSVSFDKTTFRLLRGESNLFYTLAKWENNKLHVELPENIDKQSPTMTLIYDENGQLLWAQRDVPWLMKMIQPDWLKSNGFHEIEADVNDTSLLLSGDHSIQQQLQEVREDDDDAEMTHSVAVNVYPATSRMPKLTIVVVDTIPVELKSSYMVWSWFIYVLSANLLLVIPLLWVAAWWSLRPIEALAKEVRELEEHNRELLNPATTRELTSLVRNLNRLLKSERERYDKYRTTLTDLTHSLKTPLXXLQXXLRSLRSEKMSVSDAEPVMLEQISRISQQIGYYLHRASMRGGTLLSRELHPVAPLLDNLTSALNKVYQRKGVNISLDISPEISFVGEQNDFVEVMGNVLDNACKYCLEFVEISARQTDEHLYIVVEDDGPGIPLSKREVIFDRGQRVDTLRPGQGVGLAVAREITEQYEGKIVAGESMLGGARMEVIFGRQHSAPKDE

Variants of: B1
Test: enrichment ratio after two sorts for PhoP signalling (ratio (wild type AVST 3.29)); higher = more functional
Details: with PhoP (E. coli)

| Variant | enrichment ratio |
| --- | --- |
| RLTT | ≤ 0.25 |
| IESN | ≤ 0.25 |
| VLSE | ≤ 0.25 |
| DSAW | ≤ 0.25 |
| AQRY | ≤ 0.25 |
| NLRG | ≤ 0.25 |
| FLQT | ≤ 0.25 |
| MYEG | ≤ 0.25 |
| AIPQ | ≤ 0.25 |
| QSFR | 0.584 |
| IIDT | ≤ 0.25 |
| DKLI | ≤ 0.25 |
| RRPS | ≤ 0.25 |
| MEHY | ≤ 0.25 |
| QYAM | ≤ 0.25 |
| NISD | ≤ 0.25 |
| WRTY | ≤ 0.25 |
| TYSL | 3 |
| KMDY | ≤ 0.25 |
| DKWM | ≤ 0.25 |
| LFVQ | ≤ 0.25 |
| KIDF | ≤ 0.25 |
| YWYQ | ≤ 0.25 |
| VKVI | ≤ 0.25 |
| GELH | 11.9 |
| TGCV | 7.81 |

| Variant | enrichment ratio |
| --- | --- |
| TLCE | ≤ 0.25 |
| CHPC | ≤ 0.25 |
| KRWS | ≤ 0.25 |
| SCPH | ≤ 0.25 |
| NHLS | ≤ 0.25 |
| RLLM | ≤ 0.25 |
| MERH | ≤ 0.25 |
| ANDG | ≤ 0.25 |
| ETCA | ≤ 0.25 |
| LKCY | ≤ 0.25 |
| HSDN | ≤ 0.25 |
| REMT | ≤ 0.25 |
| VENT | ≤ 0.25 |
| HPMF | ≤ 0.25 |
| ACRN | ≤ 0.25 |
| MEVE | ≤ 0.25 |
| PIML | ≤ 0.25 |
| MGQC | ≤ 0.25 |
| HFPR | ≤ 0.25 |
| RRSN | ≤ 0.25 |
| FYWW | ≤ 0.25 |
| TPQQ | ≤ 0.25 |
| NRAW | ≤ 0.25 |
| LRFS | ≤ 0.25 |
| NLAQ | ≤ 0.25 |
| RQDD | ≤ 0.25 |

| Variant | enrichment ratio |
| --- | --- |
| KQGN | ≤ 0.25 |
| CFSR | ≤ 0.25 |
| QKFA | ≤ 0.25 |
| LDSQ | ≤ 0.25 |
| KLMA | ≤ 0.25 |
| HMMR | ≤ 0.25 |
| EFFW | ≤ 0.25 |
| SEET | 6.48 |
| KSSD | ≤ 0.25 |
| LILD | ≤ 0.25 |
| NAKE | ≤ 0.25 |
| QNVL | ≤ 0.25 |
| HETY | ≤ 0.25 |
| WGYS | ≤ 0.25 |
| LIVR | ≤ 0.25 |
| MVSG | 0.389 |
| VFCC | ≤ 0.25 |
| YRGN | ≤ 0.25 |
| CVCM | ≤ 0.25 |
| EDPH | ≤ 0.25 |
| LDIY | ≤ 0.25 |
| QMNP | ≤ 0.25 |
| EPCL | ≤ 0.25 |
| VFTL | ≤ 0.25 |
| DLNQ | ≤ 0.25 |
| LYCK | ≤ 0.25 |

| Variant | enrichment ratio |
| --- | --- |
| DFML | ≤ 0.25 |
| HDKP | ≤ 0.25 |
| HNRY | ≤ 0.25 |
| GRSW | ≤ 0.25 |
| GIHF | ≤ 0.25 |
| IVTC | ≤ 0.25 |
| YLLQ | ≤ 0.25 |
| DSML | ≤ 0.25 |
| DQFV | ≤ 0.25 |
| FHHW | ≤ 0.25 |
| REFI | ≤ 0.25 |
| GKAK | ≤ 0.25 |
| NGQH | ≤ 0.25 |
| VQPK | ≤ 0.25 |
| RAYW | ≤ 0.25 |
| ISWL | ≤ 0.25 |
| EDYD | ≤ 0.25 |
| QALD | ≤ 0.25 |
| HLDS | ≤ 0.25 |
| RMIH | ≤ 0.25 |
| QNQH | ≤ 0.25 |
| DQGM | ≤ 0.25 |
| HWQY | ≤ 0.25 |
| HSFC | ≤ 0.25 |
| REFF | ≤ 0.25 |
| NVHI | ≤ 0.25 |

| Variant | enrichment ratio |
| --- | --- |
| DLLQ | ≤ 0.25 |
| CLSV | ≤ 0.25 |
| PSNH | ≤ 0.25 |
| SAVY | 1.85 |
| YWDD | ≤ 0.25 |
| THGK | ≤ 0.25 |
| QNNN | ≤ 0.25 |
| KQGI | ≤ 0.25 |
| VKRD | ≤ 0.25 |
| HSGR | ≤ 0.25 |
| SEME | ≤ 0.25 |
| PSFK | ≤ 0.25 |
| IGIW | ≤ 0.25 |
| DCSS | ≤ 0.25 |
| GYDR | ≤ 0.25 |
| LGAE | ≤ 0.25 |
| QMMQ | ≤ 0.25 |
| MVCS | ≤ 0.25 |
| VGIM | ≤ 0.25 |
| QGCD | ≤ 0.25 |
| TKAN | ≤ 0.25 |
| RGTN | ≤ 0.25 |
| LLVR | ≤ 0.25 |
| YNGA | ≤ 0.25 |
| SRAW | ≤ 0.25 |
| QYNN | ≤ 0.25 |

| Variant | enrichment ratio |
| --- | --- |
| WRPI | ≤ 0.25 |
| MFME | ≤ 0.25 |
| QQSD | ≤ 0.25 |
| HYES | ≤ 0.25 |
| KLVS | ≤ 0.25 |
| DETN | ≤ 0.25 |
| AQRQ | ≤ 0.25 |
| PRKM | ≤ 0.25 |
| LEFE | ≤ 0.25 |
| NPGG | ≤ 0.25 |
| WDEG | ≤ 0.25 |
| LKSR | ≤ 0.25 |
| PCIW | ≤ 0.25 |
| SGKR | ≤ 0.25 |
| YRNC | ≤ 0.25 |
| RNLG | ≤ 0.25 |
| KDFI | ≤ 0.25 |
| MMEQ | ≤ 0.25 |
| HYNT | ≤ 0.25 |
| SKGL | 0.548 |
| DQLT | ≤ 0.25 |
| RCVK | ≤ 0.25 |
| QGVY | ≤ 0.25 |
